Test results reported in PubChem BioAssay AID463173 (ICCB-Longwood Screening Facility, Harvard Medical School, 2010).
The whole screen tested about 52,000 compounds, of which about 4,300 (8.3%) were called active. No stated cut-off is given here; in the data, active means survival mostly below about 52% (no sharp cut-off); inactive means mostly above about 56%. Some of the results follow.

tested on: DeltatarO mutant; assay: growth inhibition of S. aureus wild type versus tarO mutant, primary screen, teichoic acid synthesis inhibitors, RN4220, OD600 (AID 463173); conditions: OD600, 18 h, stronger effect = lower value, screened at 18.75 µg/mL (by protocol)

| Structure (SMILES) | survival |
| --- | --- |
| CC(C)CC(=O)Nc1cc(-c2ccccc2F)nn1-c1ccccc1 | inactive: 84% |
| Cc1cccc(C)c1OCc1cc(=O)n2c3c(sc2n1)CCCC3 | active: -17% |
| CSc1ccc(Cn2nnc(C(=O)Nc3ccc(C)cc3Cl)c2N)cc1 | inactive: 99% |
| CCN(c1ccccc1)S(=O)(=O)c1ccc(-c2cc(C)no2)s1 | inactive: 134% |
| Cc1cc(C)cc(NC(=O)CSc2nc(=O)n(Cc3ccccn3)c3c2CCC3)c1 | inactive: 74% |
| CCOC(=O)C(C)Sc1nc(-c2ccccc2Cl)cc(-c2ccccc2)c1C#N (centres undefined) | inactive: 64% |
| Cc1ccc2[nH]c(=O)c(CN(C(=O)c3cccc(Cl)c3)C(C)(C)C)cc2c1 | inactive: 94% |
| Cc1ccc(NC(=O)c2cc3nc(-c4ccccc4)cc(-c4ccccc4)n3n2)cc1 | inactive: 60% |
| Cc1ccc(CNC(=O)c2cnn(-c3cccc(C)c3)c2C2CCN(C(=O)OC(C)(C)C)CC2)cc1 | inactive: 75% |
| COc1ccc(CCNC(=O)c2ccc(Cn3c(=O)c4ccccc4n(Cc4cccc(C)c4)c3=O)cc2)cc1OC | inactive: 111% |
| CCC1CCCCN1S(=O)(=O)c1cc(C(=O)Nc2ccc(C)c(F)c2)ccc1F (centres undefined) | inactive: 94% |
| CCOCCCn1c(=N)c(C(=O)NC2CCCC2)cc2c(=O)n3cc(C)ccc3nc21 | inactive: 84% |
| O=c1ccc2nc3ccccc3c(=O)n2[nH]1 | inactive: 85% |
| COc1ccccc1Cc1nc2ccccc2nc1SCC(=O)Nc1cc(Cl)ccc1OC | inactive: 73% |
| Cc1cc(C)cc(NC(=O)Nc2nnc(N(C)C3CCCCC3)s2)c1 | inactive: 105% |
| COc1ccccc1-c1noc(CCCC(=O)NCc2ccco2)n1 | inactive: 54% |
| COc1ccc2sc(N(Cc3cccnc3)C(=O)COc3ccccc3)nc2c1 | inactive: 64% |
| CCOc1ccc(CCNc2nc3ccccc3n3c(C)nnc23)cc1OCC | inactive: 107% |
| COc1cc(NC(=O)Cn2c(=O)n(CC3CCCO3)c(=O)c3ccccc32)cc(OC)c1 (centres undefined) | inactive: 103% |
| C=CCn1c(/N=C/c2ccc3c(c2)OCO3)nc2ccccc21 | inactive: 68% |
| O=C(Nc1cccc(C(F)(F)F)c1)c1cc2nc(-c3ccc4c(c3)OCO4)cc(C(F)(F)F)n2n1 | inactive: 88% |
| Cc1ccc(-c2nc(CSc3nncn4c3cc3occc34)c(C)o2)cc1 | inactive: 67% |
| NCCc1nc2cccnc2n1-c1ccccc1 | inactive: 85% |

| Structure (SMILES) | survival |
| --- | --- |
| C=CCC(c1ccccc1)N(C(C)=O)c1ccco1 (centres undefined) | inactive: 75% |
| CCc1ccccc1NC(=O)c1nnn(Cc2ccc(Cl)cc2)c1N | inactive: 77% |
| CCOC(=O)c1c(S(=O)(=O)N2CCC(C(=O)Nc3ccc(C)cc3C)CC2)c(C)n(C)c1C | inactive: 88% |
| N#Cc1nc(-c2ccccc2)oc1NCCCn1ccnc1 | inactive: 93% |
| Cc1cc(C)cc(NC(=O)c2cnc3sc(N4CCCC4)nn3c2=O)c1 | inactive: 90% |
| COCCNC(=O)CSc1nc(-c2ccccc2)[nH]c1-c1ccc(OC)cc1 | inactive: 80% |
| Cc1cc(CN2CCN(c3cccc(C)c3C)CC2)cs1 | inactive: 76% |
| CCOC(=O)C1=C(CN2CCN(c3ccc(OC)cc3)CC2)NC(=O)NC1c1ccc(Cl)cc1 (centres undefined) | inactive: 76% |
| COc1cccc(-n2c(SCC(=O)Nc3nnc(C)s3)nc3c([nH]c4ccccc43)c2=O)c1 | inactive: 60% |
| Fc1ccc2[nH]c(-c3cccs3)cc2c1 | inactive: 54% |
| CC(C)Cn1c(=O)c2sccc2n2c(CCCC(=O)N3CCN(c4ccc(F)cc4)CC3)nnc12 | inactive: 97% |
| O=C(NCc1ccccc1Cl)c1ccc2c(c1)N(Cc1ccccc1)C(=O)CS2 | inactive: 101% |
| CC1CCN(S(=O)(=O)c2ccc3c(c2)c(=O)c(C(=O)NC(C)c2ccccc2)cn3C)CC1 (centres undefined) | inactive: 68% |
| CN(CC(=O)Nc1ccccc1F)S(=O)(=O)c1ccc2c(c1)c(=O)n(C)c(=O)n2C | inactive: 134% |
| COc1ccc(CCC(=O)NCc2nc3cccnc3n2Cc2ccc(F)cc2)cc1 | inactive: 119% |
| Cc1ccc(Cl)cc1N1CCN(C(=O)c2ccc3c(c2)CCN3S(=O)(=O)c2ccccc2)CC1 | inactive: 48% |
| Cc1ccc(-c2nnc(Nc3cccc(O)c3)c3ccccc23)cc1S(=O)(=O)NCC1CCCO1 (centres undefined) | inactive: 74% |
| CCSC1=C(C#N)C2(CCCCC2)C(C#N)=C(N)N1 | inactive: 68% |
| O=c1c2ccccc2nc2n1CCN2 | inactive: 123% |
| CCOC(=O)N1CCC(NC(=O)c2cnn(-c3cccc(F)c3)c2-n2cccc2)CC1 | inactive: 95% |
| Cc1c(Cl)cccc1NC(=O)C1CCCN(c2ncnc3onc(C)c23)C1 (centres undefined) | inactive: 67% |
| CC(=O)c1cccc(NC(=O)C(CC(C)C)NS(=O)(=O)c2ccc3c(c2)CCN3C(C)=O)c1 (centres undefined) | inactive: 115% |
| CCN(CC)S(=O)(=O)c1cccc2nsnc12 | inactive: 79% |

| Structure (SMILES) | survival |
| --- | --- |
| CCOC(=O)CN(Cc1ccccc1)C(C(=O)NC1CCCCC1)c1ccc(OC)cc1 (centres undefined) | active: 20% |
| CCOc1cc(C(=O)Nc2cccc3cccnc23)cc(OCC)c1OCC | active: 10% |
| COc1ccc(Cl)cc1NC(=O)c1ccc2c(c1)CCN2S(C)(=O)=O | inactive: 81% |
| COc1cccc(Nc2sc(C(=O)c3ccc(Cl)cc3)c(N)c2C(=O)NCc2ccc(C)cc2)c1 | inactive: 95% |
| O=C(NCCc1ccccc1)c1ccc2c(c1)N(Cc1ccccc1)C(=O)c1ccccc1S2(=O)=O | inactive: 61% |
| CCc1ccc(N2CCN(S(=O)(=O)N(C)C)CC2)cc1 | inactive: 64% |
| O=C(NCCc1ccccc1)C1CCN(Cc2cc3ccccc3n2Cc2cccc(Cl)c2)CC1 | inactive: 93% |
| COc1ccc(CNC(=O)c2cc(=O)[nH]c3ccc(S(=O)(=O)N4CCCC4)cc23)c(OC)c1 | inactive: 76% |
| CC(=O)c1cccc(Nc2cc(C)nc3nc(Cc4ccccc4)nn23)c1 | inactive: 62% |
| COc1ccc(NC(=O)c2c(C)oc3ccc(O)c(CN4CCN(Cc5ccccc5)CC4)c23)cc1Cl | inactive: 61% |
| Cc1ccc(Nc2nc3ccccc3c3nnc(C)n23)c(C)c1 | inactive: 70% |
| COc1ccc(-c2cc3nc(C)c(CCC(=O)N4CCN(c5ccc(F)cc5)CC4)c(C)n3n2)c(OC)c1 | inactive: 78% |
| Cc1ccccc1C(=O)OCc1cc(=O)n2nc(C(C)C)sc2n1 | inactive: 81% |
| COc1cc(OC)c(N(C)C(=O)c2cn(C3CCCC3)c(=O)c3c2c2ccccc2n3C)cc1Cl | inactive: 79% |
| COc1ccc(-n2nc(C(=O)O)c(=O)n(C)c2=O)cc1 | inactive: 61% |
| Cc1ccc(N2CCN(C(=O)c3cnn(-c4ccc(F)cc4F)c3C3CCN(C(=O)OC(C)(C)C)CC3)CC2)c(C)c1 | inactive: 91% |
| CN(Cc1ccccc1)S(=O)(=O)c1ccc2[nH]c3c(c2c1)CCCCC3 | inactive: 67% |
| CCN1CCN(C(c2ccc(C)cc2)c2c(O)cc(C)n(Cc3ccco3)c2=O)CC1 (centres undefined) | inactive: 69% |
| CCOC(=O)c1c(C)n(-c2ccccc2)c2ccc(OC(=O)c3cccc(C)c3)cc12 | inactive: 63% |
| CC(=O)c1cccc(NC(=O)Nc2nnc(N3CCCC3)s2)c1 | inactive: 104% |
| Cc1oc2ncn(C)c(=O)c2c1C(=O)NCCCN1CCCCC1C (centres undefined) | inactive: 86% |
| CCCOc1ccc(CNC(=O)c2ccc(C)c(-n3c(C)nc4cccnc43)c2)cc1 | inactive: 94% |
| COc1ccc(-n2nc(C(=O)Nc3ccc(Cl)cn3)c3c4ccccc4n(C)c3c2=O)cc1 | inactive: 99% |

| Structure (SMILES) | survival |
| --- | --- |
| Cc1cccc(NC(=O)Cn2nc3c4ccccc4n(Cc4ccccc4)cc-3c2=O)c1 | inactive: 84% |
| O=C(Nc1cccc(C(F)(F)F)c1)N1CC2CCCN2c2ccccc21 (centres undefined) | inactive: 61% |
| Cc1cccc(-n2ncc(C(=O)N3CCN(c4ccc(C)cc4C)CC3)c2C2CCN(C(=O)OC(C)(C)C)CC2)c1 | inactive: 86% |
| Cc1ccsc1CN(C(=O)c1oc2ccc(Br)cc2c1C)C1CCS(=O)(=O)C1 (centres undefined) | inactive: 70% |
| Cc1cn(C)c(CC(=O)NCc2ccccc2)c1C(=O)O | inactive: 85% |
| CCOc1ccc(Nc2c(S(=O)(=O)c3ccc(Cl)cc3)cnc3ccc(OCC)cc23)cc1 | inactive: 66% |
| CCN1c2ccccc2-c2nc(SCC(=O)NCc3ccc(Cl)cc3)ncc2S1(=O)=O | active: 46% |
| Cc1ccccc1CNC(=O)c1oc2c(c1C)-c1[nH]ncc1CC2 | inactive: 80% |
| NC(=O)C1CCN(CC(=O)N2N=CCC2c2ccccc2)CC1 (centres undefined) | inactive: 90% |
| Cc1ccccc1Nc1nn2c(=O)c3ccc(C(=O)NCCc4ccc(Cl)cc4)cc3nc2s1 | inactive: 82% |
| Cc1ccc2nc(Cl)c3cc(C(=O)N4CCCCC4C)sc3c2c1 (centres undefined) | active: 23% |
| COc1ccc(Cl)cc1NC(=O)CN1C(=O)C(C)(C)c2cc(S(=O)(=O)N3CCCCC3)ccc21 | inactive: 70% |
| Cc1ccc2c(c1)c1nnc(SCC(=O)N3CCCCC3C)nc1n2C (centres undefined) | inactive: 83% |
| CN(C(=O)c1ccco1)c1ccccc1C(=O)O | inactive: 108% |
| O=C(Cn1c(=O)nc(-c2ccccc2)c2cc(Cl)ccc21)N1CCN(c2ccccc2F)CC1 | inactive: 94% |
| COc1ccc2c(c1)CC(C(=O)NCCCN1CCN(c3cccc(Cl)c3)CC1)CO2 (centres undefined) | inactive: 73% |
| CCOC(=O)c1sc2ccccc2c1S(=O)(=O)N1CCN(c2cccc(C)c2)C(C)C1 (centres undefined) | inactive: 95% |
| CCOc1cc(NC(=S)NCCCN2CCOCC2)c(OCC)cc1NC(=O)C1CC1 | inactive: 94% |
| O=C(CC1C(=O)N(c2ccccc2)C(=O)N1CCc1cccs1)Nc1ccc(F)cc1 (centres undefined) | inactive: 63% |
| O=C(CCCn1c(=O)c2cccn2c2cccnc21)NCc1ccccc1Br | inactive: 130% |
